Here are results for 82 compounds from ChEMBL document CHEMBL4888484, “Replenishing the malaria drug discovery pipeline: Screening and hit evaluation of the MMV Hit Generation Library 1 (HGL1) against asexual blood stage Plasmodium falciparum ,using a nano luciferase reporter read-out” (2022).

In all, about 150,000 compounds went through this assay and about 540 (0.36%) showed an effect of 50% or more. The list shows a part of the results.

The test has as its system Plasmodium falciparum. The test can be described thus: Primary screen in NF54 nanoGlo assay, in single point, at 2uM, 72h; a lower Z score goes with more inhibition. Format: functional, Erythrocyte. The settings on record: timepoint 72 hour.
In the case of `CO[C@@]1(C)C[C@@H](O)C12CCN(C(=O)Cc1csc(C)n1)CC2`, the “% Inhibition” value is -11% and the Z score turned out to be 1.41.
In the same order, the values of `Cn1cc(Br)cc1C(=O)N[C@H]1CC[C@H](CO)CC1` are 23% and -2.57.
The matching figures for `COc1ccc(-c2n[nH]cc2CN2CCc3nc[nH]c(=O)c3CC2)cc1OC`: 11% and -2.04.
In the case of `CCOC(=O)CCC(=O)N1CCN([C@H](C(=O)N(CC)CC)C2CCCC2)CC1`, the “% Inhibition” value is recorded as -4% and the Z score turned out to be 0.48.
In the same order, the values of `COC(C)(C)C(=O)Nc1ccc(C)cc1F` are -3% and 0.42.
For the compound `O=C(Cc1ccccc1F)NCc1cc2n(n1)CCN(C1CCCCC1)C2`, the “% Inhibition” value is listed as 4% and the Z score is -0.6.
`Cc1ccc(Cn2c(=O)c(N3CCC[C@H](C(=O)NCc4ccccc4F)C3)nc3ccccc32)cc1`: the “% Inhibition” value was 39% and the Z score was -1.15.
The matching figures for `Cc1c(C(=O)N2CCN(c3ccccc3F)CC2)cccc1N(C)S(C)(=O)=O`: -9% and 1.78.
The matching figures for `Cn1nc2cccc(S(=O)(=O)N[C@H]3CCS(=O)(=O)C3)c2n1`: -6% and 0.73.
Turning to `O=C(OCCNC1=NS(=O)(=O)c2ccccc21)c1ccc(F)cc1`, the “% Inhibition” value was -8% and the Z score stood at 1.03.
`C[C@@H](C(=O)N(C)CCCOc1ccc(Cl)cc1)N1C(=O)NC2(CCCC2)C1=O`: the “% Inhibition” value is given as -6% and the Z score came to 0.78.
`O=C(NCc1cccc2[nH]ccc12)[C@H]1CCS(=O)(=O)C1`: the “% Inhibition” value is reported as -12% and the Z score was found to be 1.34.
Regarding `COC[C@H](Cc1ccccc1)N(C)S(=O)(=O)C1CC1`, the “% Inhibition” value is on record as -12% and the Z score is listed as 1.63.
In the same order, the values of `O=C(NC1CCN(c2cnsn2)CC1)c1cc(Br)ccc1Cl` are -12% and 1.52.
For `CN(C)S(=O)(=O)NCc1ccnc(-c2ccsc2)c1`, the “% Inhibition” value is on record as -13% and the Z score is reported as 1.45.
The matching figures for `Cc1cccc(-c2nc3nc(C)c(CC(=O)N(C)Cc4ccccc4)c(C)n3n2)c1`: -5% and 0.6.
The matching figures for `CC[C@H]1CC[C@H](C(=O)N2CC[C@@](O)(C(N)=O)C2)CC1`: -9% and 0.95.
In the same order, the values of `O=C(NCC1CCN(Cc2nc(-c3ccccc3)cs2)CC1)[C@H]1CCCO1` are -7% and 1.15.
In the case of `O=C(C[C@@H]1C=CCC1)NCC1(CO)CCCC1`, the “% Inhibition” value is -8% and the Z score was determined as 1.05.
In the same order, the values of `Cc1ccc(C(=O)N2CCC3(CC[C@@H]3OCC(N)=O)CC2)nc1` are -5% and 0.61.
In the same order, the values of `Cc1cnccc1-n1cc(-c2cc(C(=O)N3CCCC3)c3ccccc3n2)cn1` are -1% and 0.27.
Take `COCCn1ccc2c(OCC(=O)Nc3cccc(C(=O)N4CCNC(=O)C4)c3)cccc21`: the “% Inhibition” value is -7% and the Z score is 0.81.
The matching figures for `CCn1ncc(CNC(=O)c2cnc(-c3cccc(C)c3)nc2O)c1C`: -1% and 0.12.
In the same order, the values of `Cc1ccc(C(=O)N2CC[C@H](N3CCN(C)CC3)[C@H](CCC(=O)O)C2)c(O)c1` are 2% and -0.26.
With `Cc1ccc(/C(=N/c2sc(-c3ccccc3)nc2-c2ccccc2)N2CCC[C@H](C)C2)cc1`, the “% Inhibition” value is on record as -8% and the Z score is 1.
The matching figures for `C[C@]1(CNCCn2cc(Br)cn2)CCCCO1`: -2% and 0.46.
The matching figures for `CC1(c2ccccc2C(=O)NC[C@H]2CCCO[C@@H]2c2cn[nH]c2)CC1`: -6% and 0.76.
In the case of `CCOc1ccccc1NC(=O)[C@H]1CCCN(c2ccc3cc(S(=O)(=O)N4CCCCC4)ccc3n2)C1`, the “% Inhibition” value is reported as -11% and the Z score worked out at 1.31.
For `COC(=O)c1cnoc1CN[C@H](C)c1ccc(Cl)cc1Cl`, the “% Inhibition” value is -5% and the Z score is recorded as 0.55.
In the same order, the values of `C[C@@H](CO)N(C)S(=O)(=O)c1ccc(F)c(Br)c1F` are -5% and 0.95.
The matching figures for `COc1ccsc1C(=O)N(CCN(C)C)Cc1cccnc1`: -1% and 0.18.
For `Cc1cc(CC(=O)N[C@@H](C)c2nc(-c3cccnc3)cs2)no1`, the “% Inhibition” value is given as -5% and the Z score amounted to 0.5.
The matching figures for `NC[C@H]1CC(Cc2cccc(F)c2)=NO1`: -6% and 1.1.
In the same order, the values of `Cn1cnc2cc(C(=O)NCc3csc(N)n3)ccc2c1=O` are -10% and 1.66.
With `O=C(c1nc2ccccn2c1-c1ncc[nH]1)N1CCN(C2CCCCC2)CC1`, the “% Inhibition” value is -13% and the Z score is listed as 1.73.
With `Cc1cc(C(=O)NCc2noc(C(N)=O)n2)cc(C)n1`, the “% Inhibition” value is reported as -15% and the Z score is 1.6.
In the same order, the values of `Cc1cc(C)n(-c2nnc(Nc3ccc(C)c(Cl)c3)c3ccccc23)n1` are -4% and 0.64.
The matching figures for `COc1cccc(CN2C(=O)c3cc4ccc(OC)cc4n3C[C@@]2(C)C(=O)NC2CCCCCC2)c1`: -12% and 1.58.
As to `CC(C)Oc1cccc2c1c(NC(=O)CN1CCOC1=O)nn2Cc1ccccc1`, the “% Inhibition” value is listed as -13% and the Z score came out at 2.47.
The matching figures for `Cc1nonc1CNC(=O)[C@]1(C)CCCCO1`: -9% and 1.11.
The matching figures for `Cc1cc(CC(=O)N2CCO[C@H](c3ccccc3)C2)on1`: -18% and 2.27.
In the same order, the values of `C[C@H]1c2nnc(C3CCCC3)n2CCN1C(=O)c1cncc(O)c1` are -6% and 1.
As for `COc1cc(N2CCC(Oc3cccc(F)c3)(C(=O)O)CC2)ncn1`, the “% Inhibition” value was -10% and the Z score was 2.02.
Turning to `Cn1cnnc1[C@@H]1CCCN1Cc1c[nH]nc1-c1cccs1`, the “% Inhibition” value was 5% and the Z score is listed as -0.52.
The matching figures for `COCCn1c(N)c(N(Cc2ccccc2)C(=O)COc2cccc(C)c2)c(=O)[nH]c1=O`: -9% and 1.32.
The matching figures for `CC(C)(C)CN1C[C@@H](NC(=O)COc2ccc3c(c2)OCO3)CC1=O`: -1% and 0.23.
Consider `N#Cc1c([C@H]2CCOC2)cc(-c2ccc(F)cc2C(F)(F)F)nc1N`, for which the “% Inhibition” value was found to be 0% and the Z score was -0.06.
Consider `CC(C)C[C@H]1C[C@@H](NC(=O)c2ccccc2)C[C@@H](c2cccnc2)O1`, for which the “% Inhibition” value is given as -14% and the Z score is given as 1.31.
In the same order, the values of `CCn1ccc(C(=O)N2CC(F)(F)C[C@H]2COc2ccc3c(c2)CCC3)n1` are -10% and 1.77.
In the same order, the values of `CCc1nnc2n1CCN(CCC(=O)N1CCCCC1)C2` are -4% and 0.58.
With `COc1ccc(NC(=O)[C@H]2C[C@H](Cc3ccccc3)N[C@]23C(=O)Nc2ccccc23)cc1`, the “% Inhibition” value is given as -15% and the Z score worked out at 1.91.
The matching figures for `CC(C)[C@H](C)N(Cc1ccc(Cl)cc1)Cc1nc(C(=O)NCCc2ccccn2)co1`: -15% and 1.84.
In the same order, the values of `Cc1nn(C)c(NC(=O)c2cc(C3CC3)nc3ccccc23)c1C` are 9% and -1.17.
The matching figures for `CNC(=O)c1nc(-c2ccccc2)n2c1CCN(C(=O)CC1CC1)CC2`: 6% and -0.65.
Turning to `Cc1nc(C(C)C)ncc1C(=O)N1CCC(Oc2cccc(F)c2)CC1`, the “% Inhibition” value is -6% and the Z score is 0.73.
In the same order, the values of `O=C([C@H](Cc1ccccc1)NC1Cc2ccccc2C1)N1CCOCC1` are -12% and 1.71.
Regarding `O=C(NCCN1CCN(c2ccccc2)CC1)N[C@H]1CC(=O)N(c2cccc(F)c2)C1`, the “% Inhibition” value stood at 30% and the Z score is listed as -3.79.
In the same order, the values of `Cc1ccc(CN(C)C(=O)Nc2ccc3c(c2)CCC3)nc1` are -1% and 0.14.
Regarding `O=C(C[C@@H]1COC2(C1)CN(S(=O)(=O)c1ccc(Cl)s1)C2)N1CCOCC1`, the “% Inhibition” value is on record as -5% and the Z score was 0.83.
The matching figures for `Cc1ccc2c(n1)N(C)[C@H](CO)CCN(Cc1ccc3c(c1)OCO3)C2`: 1% and -0.18.
With `Cc1[nH]nc(O)c1[C@@H](CC(N)=O)c1ccco1`, the “% Inhibition” value is -7% and the Z score is given as 1.03.
The matching figures for `Cc1noc(C)c1C(=O)N1CCc2nn(C)c(=O)n2CC1`: -8% and 1.53.
In the same order, the values of `Cc1nc(C(C)C)nc(NCCNC(=O)N(C)C)c1Br` are -1% and 0.1.
In the same order, the values of `CCN1CCN(CCCN2CC3(CCN(c4ccnc(C)n4)CC3)OC2=O)CC1` are -9% and 1.72.
Turning to `O=C(NCc1ccco1)N1CCC[C@H]1c1ccc2c(c1)OCCO2`, the “% Inhibition” value is 1% and the Z score is reported as -0.25.
`Cc1nnc2ncc(-c3ccc(OC(C)C)cc3)cn12`: the “% Inhibition” value was 6% and the Z score is -0.89.
With `COc1cccc(NC(=O)Nc2c(-c3ccncc3)[nH]c3c(Cl)cccc23)c1`, the “% Inhibition” value is listed as -2% and the Z score was found to be 0.37.
Consider `OC[C@]12CN(Cc3ccncc3F)CC[C@H]1CN(Cc1ccccc1)C2`, for which the “% Inhibition” value was -6% and the Z score came to 0.81.
In the case of `CCN(Cc1ccccc1)c1ccc(NC(=O)c2ccc(Br)cc2)cc1C(=O)O`, the “% Inhibition” value was determined as 0% and the Z score is -0.06.
Turning to `CCc1ccc(-c2cc(C(F)(F)F)on2)cc1S(=O)(=O)Nc1cccc(C)c1C`, the “% Inhibition” value is recorded as -1% and the Z score was found to be 0.11.
For the compound `Cc1nc2cc(CNC(=O)[C@H]3CCc4cn[nH]c4C3)ccc2n1C1CC1`, the “% Inhibition” value was -19% and the Z score is 2.6.
In the same order, the values of `Cc1ccc(S(=O)(=O)N2C3CCC2CC(N2C(=O)CCC2=O)C3)s1` (centres undefined) are -5% and 0.81.
In the same order, the values of `O=S(=O)(CCCCF)Nc1cc(C(F)(F)F)c(F)cc1O` are -6% and 0.92.
In the same order, the values of `CCC[C@H](C)NS(=O)(=O)c1cccc(F)c1` are 4% and -0.51.
As to `C[C@@H](C(=O)Nc1ccc2c(c1)C(=O)N(CC1CC1)C2=O)n1ccnc1`, the “% Inhibition” value is given as 1% and the Z score is -0.08.
The matching figures for `O=C(CC[C@H]1CCCOC1)Nc1ccc(-c2ccccc2)cn1`: -6% and 1.17.
As for `Cn1nc(CCNC(=O)N[C@H]2CC[C@H](CO)CC2)c2ccccc21`, the “% Inhibition” value is -14% and the Z score was 1.39.
The matching figures for `Cc1cnccc1OC1CCN(C(=O)[C@@H](C)Cc2c(C)nn(C)c2C)CC1`: -8% and 1.17.
In the same order, the values of `CCOc1ccc(CN[C@H]2CS(=O)(=O)C[C@@H]2O)cc1F` are -3% and 0.61.
The matching figures for `COCC(=O)Nc1cc(C(=O)N2CCC[C@H](C(N)=O)C2)c2c(c1)ncn2CCc1ccccc1`: 2% and -0.34.
With `CN(CC#N)S(=O)(=O)Cc1cccc(F)c1`, the “% Inhibition” value worked out at 7% and the Z score is -0.79.
On to `CCCCOc1cccc(NCC(=O)NC(=O)NCC)c1`, for which the “% Inhibition” value was -11% and the Z score is 1.21.
